{
  "source": "PubChem BioAssay AID485281",
  "about": "(National Center for Advancing Translational Sciences (NCATS), 2010)",
  "note": "The whole screen tested about 350,000 compounds, of which about 260 (0.074%) were called active. The inconclusive results got no clear call from the source; some entries with a clear call stand among them for comparison. Calls come from the whole dose curve; as a rule, active = well fitted inhibition curve with a large enough effect; inconclusive = small, poorly fitted or top-dose-only effect; inactive = no such curve, though single readings can be large or run the other way. Potencies of inconclusive entries are doubtful fits and often do not repeat. Potency is the fitted concentration of half-maximal effect; tags give direction and shape of the fitted curve.",
  "data": [
    {"target": "Ferritin light chain (Equus caballus) (UniProt P02791)", "sequence (P02791 whole entry, looked up)": "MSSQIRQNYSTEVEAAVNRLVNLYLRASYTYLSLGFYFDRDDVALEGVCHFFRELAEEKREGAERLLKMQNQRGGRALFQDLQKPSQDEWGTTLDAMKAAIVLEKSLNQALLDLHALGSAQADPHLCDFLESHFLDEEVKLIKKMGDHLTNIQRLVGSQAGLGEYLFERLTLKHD", "test": "qHTS Assay for Identification of Novel General Anesthetics; note: nearly all actives have a fitted effect of over 20% in size", "conditions": "apoferritin/1-aminoanthracene competitive binding, fluorescence; series mostly up to 77.5 µM", "in_short": "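Horse-spleen apoferritin (10 uM) in 50% saturated 1-aminoanthracene in PBS was incubated 10 min at room temperature with compound. Fluorescence (ex 380, em 535 nm) was normalized to free and bound 1-AMA, with concentration-response fitted by a four-parameter Hill equation.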", "values": [
      {"compound": "COC(=O)C1=Nc2ccccc2/C1=C\\c1c(O)n(-c2ccc(OC)cc2)c(=O)[nH]c1=O", "Potency": "inconclusive: 22.4 µM [inhibitor, partial curve]"},
      {"compound": "Cc1ccsc1C(=O)C1CCCN(Cc2cc3ccccc3o2)C1", "note": "(configuration not stated)", "Potency": "inconclusive: 22.4 µM [inhibitor, partial curve]"},
      {"compound": "O=C(N/N=C/c1c(O)n(CCC2=CCCCC2)c(=O)[nH]c1=O)c1ccccc1", "Potency": "inactive"},
      {"compound": "Clc1ccc(COn2ccnc2)cc1Cl", "Potency": "inconclusive: 28.2 µM [inhibitor, partial curve]"},
      {"compound": "O=c1[nH]c(=O)n(Cc2ccco2)c(O)c1C=NCc1ccc2c(c1)OCO2", "Potency": "inconclusive: 44.7 µM [inhibitor, partial curve]"},
      {"compound": "CCN(CC)C(=O)Oc1ccc2ccccc2c1Cl", "Potency": "inconclusive: 35.5 µM [inhibitor, single point]"},
      {"compound": "Cc1cc(SCC(=O)N/N=C/c2ccco2)nc2ccccc12", "Potency": "inconclusive: 35.5 µM [inhibitor, single point]"},
      {"compound": "C=CCn1c(O)c(C(CC)=NCc2ccc3c(c2)OCO3)c(=O)[nH]c1=O", "Potency": "inactive"},
      {"compound": "CCCC(=O)NC(Oc1ccc(OC)cc1)C(Cl)(Cl)Cl", "note": "(configuration not stated)", "Potency": "inconclusive: 39.8 µM [inhibitor, partial curve]"},
      {"compound": "Cc1cccc(N2C(=O)/C(=C/N3CCN(C(=O)c4ccco4)CC3)C(=O)NC2=S)c1", "Potency": "inconclusive: 39.8 µM [inhibitor, single point]"},
      {"compound": "CN(C)C(Cc1ccccc1)C(=O)c1ccc(-c2ccccc2)cc1", "note": "(configuration not stated)", "Potency": "inconclusive: 39.8 µM [inhibitor, partial curve]"},
      {"compound": "CC(C)=CCCC1(C)C=Cc2c(O)c3c(c(CC=C(C)C)c2O1)OC12C(CC4CC1C(C)(C)OC2(C/C=C(/C)C(=O)O)C4O)C3=O", "note": "(configuration not stated)", "Potency": "inconclusive: 39.8 µM [inhibitor, single point]"},
      {"compound": "Cc1cc(O)c2c(c1)OC(C)(C)C1=C2CC(C)CC1", "note": "(configuration not stated)", "Potency": "inconclusive: 31.6 µM [inhibitor, single point]"},
      {"compound": "CCOC(=O)c1cn2nc(OP(=S)(OCC)OCC)cc2nc1C", "Potency": "inconclusive: 39.8 µM [inhibitor, single point]"},
      {"compound": "CN(CCc1ccccc1)Cc1ccccc1[N+](=O)[O-]", "Potency": "inconclusive: 35.5 µM [inhibitor, partial curve]"},
      {"compound": "CCN1C(=O)C(=Cc2c(C)n(CC(=O)NCC3CCCO3)c3ccccc23)C(=O)N(CC)C1=S", "note": "(configuration not stated)", "Potency": "inconclusive: 28.2 µM [inhibitor, partial curve]"},
      {"compound": "CC(C)c1ccc(N2C(=O)NC(=O)/C(=C/c3cnc(-c4ccccc4)nc3)C2=O)cc1", "Potency": "inactive"},
      {"compound": "COc1ccc(Nc2cc(C)c3cc(NC(=O)c4ccccc4Cl)ccc3n2)cc1", "Potency": "inactive"},
      {"compound": "CCOCCCNC(=O)c1c[nH]c2ccc(S(=O)(=O)N(C)c3ccc(Cl)cc3F)cc2c1=O", "Potency": "inconclusive: 11.2 µM [inhibitor, single point]"},
      {"compound": "C=C(C)[C@H]1CN[C@H](C(=O)O)[C@H]1CC(=O)O", "Potency": "inconclusive: 12.6 µM [inhibitor, partial curve]"},
      {"compound": "CC(=O)Nc1ccccc1C(=O)OCC(=O)c1ccc2ccccc2c1", "Potency": "inconclusive: 28.2 µM [inhibitor, partial curve]"},
      {"compound": "NC(=O)Nc1ccc(C(=O)OCC(=O)Nc2ccc(Cl)cc2C(=O)c2ccccc2)cc1", "Potency": "inconclusive: 56.2 µM [inhibitor, single point]"},
      {"compound": "O=C1CC2OCC=C3CN4CCC56c7ccccc7N1C5C2C3CC46", "note": "(configuration not stated)", "Potency": "inactive"},
      {"compound": "Cc1ccc(N2C(=O)/C(=C/c3ccc(CN(CCC#N)S(C)(=O)=O)o3)C(=O)NC2=S)cc1", "Potency": "inconclusive: 25.1 µM [inhibitor, partial curve]"},
      {"compound": "CCCCn1c(O)c(C(CC)=NCCc2ccccc2)c(=O)[nH]c1=O", "Potency": "inconclusive: 35.5 µM [inhibitor, partial curve]"},
      {"compound": "CCCN1[C@H](C(=O)OC)C[C@@H]2CC[C@@H](O)C[C@@H]21", "Potency": "inactive"},
      {"compound": "CSc1ccc(CN2CCN(C(=O)COc3ccc(C)cc3)CC2)cc1", "Potency": "inactive"},
      {"compound": "CCCC(C)C1(CC)C(=O)N=C(S)NC1=O", "note": "(configuration not stated)", "Potency": "inconclusive: 31.6 µM [inhibitor, partial curve]"},
      {"compound": "Cc1cnn(-c2cc(Oc3ccccc3)ncn2)c1", "Potency": "inconclusive: 56.2 µM [inhibitor, single point]"},
      {"compound": "CCOc1ccccc1N1C(=O)NC(=O)/C(=C/c2ccc3c4c(cccc24)CC3)C1=O", "Potency": "inactive"},
      {"compound": "N#CC(c1ccccc1)c1cccc(Cl)n1", "note": "(configuration not stated)", "Potency": "inconclusive: 44.7 µM [inhibitor, single point]"},
      {"compound": "Cc1cc(O)ccc1Cl", "Potency": "inconclusive: 14.1 µM [inhibitor, partial curve]"},
      {"compound": "Nc1c(C(=O)NCCc2ccccc2)c2nc3ccccc3nc2n1CCN1CCOCC1", "Potency": "inactive"},
      {"compound": "O=c1[nH]c(=S)n(C2CC2)c(O)c1C=NCc1ccc(F)cc1", "Potency": "inactive"},
      {"compound": "CC1=CC(=C2C(=O)NC(=O)NC2=O)C=C(C(F)(F)F)N1C(C)C", "Potency": "inconclusive: 50.1 µM [inhibitor, partial curve, poor fit]"},
      {"compound": "COC(=O)C(O)(c1ccc2c(c1)CCCN2)C(F)(F)F", "note": "(configuration not stated)", "Potency": "inconclusive: 35.5 µM [inhibitor, partial curve]"},
      {"compound": "Cn1nc(N)c2c1N=P(N1CCOCC1)(N1CCOCC1)N=C2c1ccccc1", "Potency": "inactive"},
      {"compound": "O=C1CC(c2ccc(O)cc2)Oc2cc(O)cc(O)c21", "note": "(configuration not stated)", "Potency": "inconclusive: 28.2 µM [inhibitor, partial curve]"},
      {"compound": "C#CCN(C)C(C)Cc1ccccc1", "note": "(configuration not stated)", "Potency": "inconclusive: 25.1 µM [inhibitor, partial curve]"},
      {"compound": "COc1ccc(OC)c(N2C(=O)NC(=O)/C(=C/c3ccc([N+](=O)[O-])s3)C2=O)c1", "Potency": "inconclusive: 44.7 µM [inhibitor, single point]"},
      {"compound": "COC(=O)COc1ccc(Cl)cc1Cl", "Potency": "inconclusive: 50.1 µM [inhibitor, single point]"},
      {"compound": "Cc1nn(CCC#N)c2c1P(=S)(N1CCCC1)OC(c1ccc(F)cc1)=N2", "note": "(configuration not stated)", "Potency": "inactive"},
      {"compound": "CCCCCCCCCCCCN=C(N)N", "Potency": "inconclusive: 39.8 µM [inhibitor, single point]"},
      {"compound": "Cc1cc(OC(=O)c2ccco2)c2c3c(c(=O)oc2c1)CCCC3", "Potency": "inconclusive: 22.4 µM [inhibitor, partial curve]"},
      {"compound": "CN1C(=O)C(=Cc2ccccc2OCc2ccccc2Cl)C(=O)N(C)C1=O", "Potency": "inconclusive: 28.2 µM [inhibitor, single point]"},
      {"compound": "O=C(O)c1ccccc1-c1c2cc(Br)c(=O)cc-2oc2[c]([Hg])c(O)c(Br)cc12", "Potency": "inactive"},
      {"compound": "CCN(C(=O)CSc1ncccc1C(=O)Oc1cccc([N+](=O)[O-])c1)c1cccc(C)c1", "Potency": "inconclusive: 22.4 µM [inhibitor, partial curve]"},
      {"compound": "O=C(Cc1ccc(Br)cc1)N1CCN(Cc2ccccc2)CC1", "Potency": "inactive"},
      {"compound": "NS(=O)(=O)OC(CCc1ccccc1)C(Cl)(Cl)Cl", "note": "(configuration not stated)", "Potency": "inconclusive: 15.8 µM [inhibitor, partial curve]"},
      {"compound": "COC(=O)C(O)(c1ccc(NC(=S)NC(=O)c2ccc(Cl)cc2Cl)c(C)c1)C(F)(F)F", "note": "(configuration not stated)", "Potency": "inconclusive: 35.5 µM [inhibitor, partial curve]"},
      {"compound": "COc1ccc(-c2cc(=O)oc3c(C)c(OC(C)C(=O)N4C[C@H]5C[C@@H](C4)c4cccc(=O)n4C5)ccc23)cc1", "note": "(some centres not stated)", "Potency": "inconclusive: 14.1 µM [inhibitor, partial curve]"},
      {"compound": "COc1ccc(CN2CCCC(C(=O)c3ccccc3SC)C2)cc1O", "note": "(configuration not stated)", "Potency": "inconclusive: 20 µM [inhibitor, partial curve]"},
      {"compound": "Cc1ccc(C(=O)COC(=O)Cc2ccccc2)cc1", "Potency": "inconclusive: 17.8 µM [inhibitor, partial curve]"},
      {"compound": "CCc1ccc(C(=O)NN(C(=O)c2cc(C)cc(C)c2)C(C)(C)C)cc1", "Potency": "inactive"},
      {"compound": "CC12CCCCC1=NC(c1ccc(Br)cc1)N2O", "note": "(configuration not stated)", "Potency": "inconclusive: 39.8 µM [inhibitor, single point]"},
      {"compound": "COc1ccc(Sc2cnn(-c3ccccc3)c(=O)c2Cl)cc1", "Potency": "inconclusive: 56.2 µM [inhibitor, single point]"},
      {"compound": "CCOC(=O)Cn1cc([N+](=O)[O-])nc1[N+](=O)[O-]", "Potency": "inactive"},
      {"compound": "COc1cc2c(cc1OC)[C@@H]1C(=O)c3ccc4c(c3OC1CO2)CC(C(C)C)O4", "note": "(some centres not stated)", "Potency": "inconclusive: 35.5 µM [inhibitor, single point]"},
      {"compound": "CC(C)[C@H]1C(=O)O[C@H](C(C)C)C(=O)N(C)[C@@H](C(C)C)C(=O)O[C@H](C(C)C)C(=O)N(C)[C@@H](C(C)C)C(=O)O[C@H](C(C)C)C(=O)N1C", "Potency": "inconclusive: 35.5 µM [inhibitor, partial curve]"},
      {"compound": "CN(C)c1ccc(/C=C/c2cc[n+](C)c3ccccc23)cc1", "Potency": "inconclusive: 28.2 µM [inhibitor, partial curve]"},
      {"compound": "O=c1[nH]c2ccccc2n1CCCN1CCC(n2c(=O)[nH]c3cc(Cl)ccc32)CC1", "Potency": "inactive"},
      {"compound": "Cc1ccc(NC(=O)CN2C(=O)CN=C(c3ccccc3)c3cc(Cl)ccc32)cc1", "Potency": "inconclusive: 17.8 µM [inhibitor, partial curve]"},
      {"compound": "COc1ccc(N/N=C/c2c(O)n(-c3cccc(C)c3)c(=O)[nH]c2=O)cc1", "Potency": "inconclusive: 15.8 µM [inhibitor, partial curve]"},
      {"compound": "COP(=S)(OC)SCn1nnc2ccccc2c1=O", "Potency": "inconclusive: 31.6 µM [inhibitor, partial curve]"},
      {"compound": "CC1CCCC(=O)CCC/C=C/c2cc(O)cc(O)c2C(=O)O1", "note": "(configuration not stated)", "Potency": "inactive"},
      {"compound": "Cc1ccc(-n2c(O)c(C=NCCC3=CCCCC3)c(=O)[nH]c2=O)cc1", "Potency": "inconclusive: 8.91 µM [inhibitor, full curve, poor fit]"},
      {"compound": "CCC(Oc1ccc(Cl)cc1)C(=O)OC1CC2CCC(C1)N2C", "note": "(configuration not stated)", "Potency": "inactive"}
    ]}
  ]
}
